Laboratory results published in ChEMBL document CHEMBL5724801, “EUbOPEN Chemogenomics Library - Multiplex” (2024).
A number of entries come with more than one value. The other results are left out here. The source may hold further records. Results that share an entry are repeated measurements (runs, samples, wells, individuals or studies).

How the values were obtained:
Assay type in all cases: toxicity, cell-based
Fibroblast = test: Multiplex assay against human fibroblast
Summary of the method: (§1)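 Per cents of healthy-nucleus cells form the tubulin, mitochondrial-mass and membrane-permeability phenotype values. Live cells were stained at seeding with Hoechst33342, BioTracker Green Microtubule Cytoskeleton Dye, MitoTracker Red and Annexin V Alexa Fluor 680. After compound addition they were imaged on a CQ1 microscope at 37°C and 5% CO2, and CellPathfinder machine-learning gating split them into Hoechst high-intensity objects or normal cells, normal cells into healthy, pyknosed or fragmented nuclei, and pyknosed cells into mitotic or apoptotic.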

HEK-293T = test: Multiplex assay against HEK293T; conditions: human; summary of the method: as §1
U2OS = test: Multiplex assay against U2OS; conditions: human; summary of the method: as §1
[1] = 12 h, 1 µM, compound concentration 1 uM
[2] = 48 h, 1 µM, compound concentration 1 uM
[3] = 24 h, 1 µM, compound concentration 1 uM
[4] = 24 h, 10 µM, compound concentration 10 uM
[5] = 48 h, 10 µM, compound concentration 10 uM
[6] = 12 h, 10 µM, compound concentration 10 uM

## CCOc1ccccc1C(=O)NCC1(N2CCN(CC)CC2)CCCCC1
Fibroblast; [1]
  Population Fragmented Nuclei (%): 19.3% and 6.1%
Fibroblast; [2]
  Population Mitochondria Different-Phenotype (%): 15.75% and 3.47%
HEK-293T; [1]
  Population Healthy Nuclei (%): 47.94% and 11.03%
  Population Mitochondria Different-Phenotype (%): 34.44% and 6.25%
HEK-293T; [3]
  Population Healthy Nuclei (%): 68.34% and 16.57%
HEK-293T; [4]
  Population Healthy Nuclei (%): 64.34% and 18.18%
HEK-293T; [2]
  Population Apoptotic (%): 5.41% and 18.87%
  Population Pyknosed Nuclei (%): 14.42% and 56.38%
  Population Tubulin-Different-Phenotype (%): 2.32% and 61.04%
  Total Cell Count: 1026 and 188
HEK-293T; [5]
  Population Tubulin-Different-Phenotype (%): 13.6% and 79.59%
  Total Cell Count: 733 and 198
U2OS; [1]
  Population Mitochondria Different-Phenotype (%): 0.31% and 12.26%
U2OS; [6]
  Population Mitochondria Different-Phenotype (%): 4.82% and 73.33%
U2OS; [4]
  Population Mitochondria Different-Phenotype (%): 5.11% and 79.81%
  Total Cell Count: 562 and 159
U2OS; [2]
  Population Mitochondria Different-Phenotype (%): 0.13% and 11.59%
  Total Cell Count: 847 and 229
U2OS; [5]
  Population Membrane Permeable-Phenotype (%): 2.63% and 13.33%
  Population Mitochondria Different-Phenotype (%): 2.91% and 35.56%
  Total Cell Count: 870 and 212

## COCCNc1cc(NC(=O)N2CCCc3cc(CN4CCOCC4=O)c(C=O)nc32)ncc1C#N
Fibroblast; [1]
  Population Apoptotic (%): 7.69% and 23.68%
Fibroblast; [3]
  Population Apoptotic (%): 5% and 21.43%
Fibroblast; [5]
  Population Mitochondria Different-Phenotype (%): 20.69% and 4.52%
HEK-293T; [1]
  Population Healthy Nuclei (%): 59.46% and 18%
  Population Tubulin-Different-Phenotype (%): 8.18% and 33.33%
HEK-293T; [6]
  Population Healthy Nuclei (%): 51.07% and 15.33%
HEK-293T; [3]
  Population Healthy Nuclei (%): 71.48% and 19.08%
  Population Tubulin-Different-Phenotype (%): 17.55% and 3.03%
  Total Cell Count: 526 and 173
HEK-293T; [2]
  Population Pyknosed Nuclei (%): 11.73% and 37.98%
  Population Tubulin-Different-Phenotype (%): 2.87% and 54.03%
  Total Cell Count: 1304 and 208
HEK-293T; [5]
  Population Tubulin-Different-Phenotype (%): 3.64% and 50.4%
  Total Cell Count: 774 and 233
U2OS; [5]
  Total Cell Count: 830 and 237

## CC(C)C[C@H](NC(=O)c1cc2ccccc2s1)C(=O)N1CCN(C(=O)[C@H](CO)NS(=O)(=O)c2ccc(Cl)cc2Cl)CC1
Fibroblast; [1]
  Population Apoptotic (%): 11.11% and 44.44%
Fibroblast; [3]
  Population Apoptotic (%): 3.92% and 51.16%
Fibroblast; [2]
  Population Apoptotic (%): 14.29% and 50%
  Population Membrane Permeable-Phenotype (%): 1.34% and 11.64%
HEK-293T; [6]
  Population Healthy Nuclei (%): 39.24% and 8.63%
  Population Mitochondria Different-Phenotype (%): 42.48% and 8.33%
HEK-293T; [4]
  Population Healthy Nuclei (%): 45.13% and 14.09%
HEK-293T; [2]
  Population Pyknosed Nuclei (%): 13.98% and 46.73%
  Population Tubulin-Different-Phenotype (%): 4.67% and 57.27%
  Total Cell Count: 1017 and 215
U2OS; [1]
  Population Mitochondria Different-Phenotype (%): 1.66% and 20%
  Total Cell Count: 392 and 89
U2OS; [3]
  Population Mitochondria Different-Phenotype (%): 0.7% and 11.11%
  Population Mitotic Cells (%): 28.24% and 9.09%
  Total Cell Count: 439 and 88
U2OS; [2]
  Population Mitochondria Different-Phenotype (%): 0.53% and 15.29%
  Total Cell Count: 706 and 116

## O=C1c2c(Br)c(Br)c(Br)c(Br)c2C(=O)N1c1ncc[nH]1
Fibroblast; [6]
  Population Mitochondria Different-Phenotype (%): 1.6% and 17.61%
Fibroblast; [3]
  Population Apoptotic (%): 8.57% and 40%
Fibroblast; [2]
  Population Apoptotic (%): 36.36% and 7.14%
  Population Mitochondria Different-Phenotype (%): 18.75% and 2.28%
Fibroblast; [5]
  Population Apoptotic (%): 75% and 23.53%
  Population Mitochondria Different-Phenotype (%): 17.22% and 5.5%
  Population Mitotic Cells (%): 25% and 76.47%
  Population Tubulin-Different-Phenotype (%): 5.56% and 24.5%
HEK-293T; [1]
  Population Tubulin-Different-Phenotype (%): 4.17% and 20%
HEK-293T; [6]
  Population Healthy Nuclei (%): 68.54% and 18.75%
  Population Tubulin-Different-Phenotype (%): 5.74% and 40%
HEK-293T; [3]
  Population Pyknosed Nuclei (%): 15.95% and 57.63%
  Total Cell Count: 602 and 118
HEK-293T; [4]
  Population Pyknosed Nuclei (%): 15.77% and 60.92%
  Total Cell Count: 577 and 174
HEK-293T; [2]
  Population Pyknosed Nuclei (%): 8.71% and 27.75%
  Population Tubulin-Different-Phenotype (%): 1% and 32.2%
  Total Cell Count: 1595 and 177
HEK-293T; [5]
  Population Tubulin-Different-Phenotype (%): 0.59% and 13.99%
  Total Cell Count: 1337 and 308
U2OS; [6]
  Total Cell Count: 438 and 140
U2OS; [4]
  Total Cell Count: 615 and 187
U2OS; [5]
  Total Cell Count: 1101 and 306

## CNc1nc(NCc2ncccn2)c2c(-c3ccc4ncccc4c3)c[nH]c2n1
Fibroblast; [1]
  Population Apoptotic (%): 5% and 24.14%
Fibroblast; [3]
  Population Apoptotic (%): 1.85% and 12.5%
Fibroblast; [2]
  Population Tubulin-Different-Phenotype (%): 4.95% and 17.61%
Fibroblast; [5]
  Population Mitochondria Different-Phenotype (%): 17.09% and 2.97%
HEK-293T; [1]
  Population Healthy Nuclei (%): 62.31% and 19.38%
  Population Mitochondria Different-Phenotype (%): 45.16% and 8%
  Population Tubulin-Different-Phenotype (%): 3.23% and 20%
  Total Cell Count: 399 and 129
HEK-293T; [6]
  Population Healthy Nuclei (%): 51.6% and 7.95%
  Population Mitochondria Different-Phenotype (%): 37.27% and 7.14%
HEK-293T; [3]
  Total Cell Count: 647 and 133
HEK-293T; [4]
  Population Pyknosed Nuclei (%): 22.12% and 68.25%
HEK-293T; [2]
  Population Apoptotic (%): 6.54% and 19.64%
  Population Pyknosed Nuclei (%): 8.06% and 32.94%
  Population Tubulin-Different-Phenotype (%): 0.94% and 40%
  Total Cell Count: 1327 and 171
HEK-293T; [5]
  Population Pyknosed Nuclei (%): 9.14% and 38.89%
  Population Tubulin-Different-Phenotype (%): 1.92% and 59%
  Total Cell Count: 602 and 185
U2OS; [6]
  Population Mitochondria Different-Phenotype (%): 1.36% and 17.16%
U2OS; [4]
  Population Mitochondria Different-Phenotype (%): 0.53% and 13.22%
U2OS; [2]
  Total Cell Count: 1052 and 335

## Clc1ccccc1C(c1ccccc1)(c1ccccc1)n1cccn1
Fibroblast; [1]
  Population Fragmented Nuclei (%): 15.66% and 5.17%
  Population Tubulin-Different-Phenotype (%): 7.14% and 22.86%
Fibroblast; [3]
  Population Apoptotic (%): 3.57% and 40%
  Population Pyknosed Nuclei (%): 16.87% and 5.46%
Fibroblast; [4]
  Population Fragmented Nuclei (%): 12.39% and 2.27%
Fibroblast; [2]
  Population Tubulin-Different-Phenotype (%): 3.12% and 17.54%
HEK-293T; [1]
  Population Healthy Nuclei (%): 60.42% and 15.75%
  Population Tubulin-Different-Phenotype (%): 2.96% and 25%
HEK-293T; [6]
  Population Healthy Nuclei (%): 53% and 17.24%
  Population Tubulin-Different-Phenotype (%): 9.43% and 50%
HEK-293T; [3]
  Population Healthy Nuclei (%): 78.65% and 25.68%
  Population Pyknosed Nuclei (%): 20.38% and 68.24%
  Total Cell Count: 521 and 148
HEK-293T; [4]
  Population Tubulin-Different-Phenotype (%): 32.13% and 6.67%
HEK-293T; [2]
  Population Tubulin-Different-Phenotype (%): 1.47% and 27.61%
  Total Cell Count: 1314 and 230
HEK-293T; [5]
  Population Tubulin-Different-Phenotype (%): 2.4% and 48.94%
  Total Cell Count: 1016 and 267
U2OS; [1]
  Population Pyknosed Nuclei (%): 4.84% and 17.7%
  Total Cell Count: 351 and 113
U2OS; [6]
  Population Mitochondria Different-Phenotype (%): 0.65% and 14.86%
  Total Cell Count: 366 and 104
U2OS; [3]
  Total Cell Count: 475 and 144
U2OS; [4]
  Population Mitochondria Different-Phenotype (%): 0.5% and 12.9%
  Total Cell Count: 480 and 126
U2OS; [2]
  Total Cell Count: 893 and 220
U2OS; [5]
  Total Cell Count: 756 and 166

## CN(C)Cc1cccc(NC(=C2C(=O)Nc3cc(C(N)=O)ccc32)c2ccccc2)c1
Fibroblast; [6]
  Population Fragmented Nuclei (%): 15.09% and 3.82%
Fibroblast; [2]
  Population Mitochondria Different-Phenotype (%): 13.51% and 2.67%
Fibroblast; [5]
  Population Fragmented Nuclei (%): 17.61% and 5.43%
HEK-293T; [1]
  Population Healthy Nuclei (%): 54.85% and 17.69%
  Population Tubulin-Different-Phenotype (%): 4.04% and 50%
HEK-293T; [3]
  Total Cell Count: 559 and 153
HEK-293T; [2]
  Population Tubulin-Different-Phenotype (%): 2.48% and 31.78%
  Total Cell Count: 1086 and 171
HEK-293T; [5]
  Population Tubulin-Different-Phenotype (%): 5.89% and 45.64%
  Total Cell Count: 800 and 254
U2OS; [6]
  Population Fragmented Nuclei (%): 3.64% and 20.6%
  Population Mitochondria Different-Phenotype (%): 1.13% and 16.2%
U2OS; [4]
  Population Fragmented Nuclei (%): 2.98% and 15.64%
  Population Mitochondria Different-Phenotype (%): 1.54% and 14.09%
U2OS; [5]
  Population Fragmented Nuclei (%): 3.83% and 14.08%

## C[C@H]1[C@H]2CC[C@H]3[C@@H]4CC=C5C[C@@H](N(C)C)CC[C@]5(C)[C@H]4CC[C@]23CN1C [CONESSINE]
Fibroblast; [3]
  Population Membrane Permeable-Phenotype (%): 1% and 13%
Fibroblast; [4]
  Population Pyknosed Nuclei (%): 9% and 32%
U2OS; [6]
  Population Mitotic Cells (%): 45% and 0%
U2OS; [4]
  Population Mitotic Cells (%): 35% and 0%

## CC(=O)NCCc1c(Cc2ccccc2)[nH]c2ccccc12 [LUZINDOLE]
Fibroblast; [6]
  Population Membrane Permeable-Phenotype (%): 2% and 13%
Fibroblast; [3]
  Population Tubulin-Different-Phenotype (%): 13% and 50%
U2OS; [1]
  Population Mitotic Cells (%): 27% and 0%

## CN1CCN2c3ccccc3Cc3ccccc3C2C1.Cl (centres undefined) [MIANSERIN HYDROCHLORIDE]
Fibroblast; [1]
  Population Membrane Permeable-Phenotype (%): 1% and 12%
Fibroblast; [4]
  Population Tubulin-Different-Phenotype (%): 11% and 53%
U2OS; [4]
  Population Mitotic Cells (%): 30% and 6%

## CCNC1(C(N)=O)CCN(c2ncnc3c2nc(-c2ccccc2Cl)n3-c2ccc(Cl)cc2)CC1 [OTENABANT]
Fibroblast; [2]
  Population Mitochondria Different-Phenotype (%): 3% and 18%
U2OS; [1]
  Population Mitochondria Different-Phenotype (%): 7% and 22%
U2OS; [2]
  Population Mitotic Cells (%): 13% and 47%
  Total Cell Count: 416 and 137

## Cl.Clc1ccc2nsnc2c1NC1=NCCN1 [TIZANIDINE HYDROCHLORIDE]
Fibroblast; [3]
  Population Fragmented Nuclei (%): 6% and 26%
  Population Tubulin-Different-Phenotype (%): 16% and 50%
U2OS; [6]
  Population Tubulin-Different-Phenotype (%): 2% and 15%
U2OS; [5]
  Population Mitotic Cells (%): 6% and 23%
  Total Cell Count: 459 and 149
